Source: PubChem BioAssay AID1721 (National Center for Advancing Translational Sciences (NCATS), 2009)
Screen size: about 290,000 compounds; about 1,100 (0.38%) were called active. Inconclusive means that the source gave no clear call. Such entries were picked first, then a sample of the others. The call rests on the fitted dose curve; in most records, active means well fitted inhibition curve with a large enough effect; inconclusive means small, poorly fitted or top-dose-only effect, or another doubt; inactive means no such curve, though single readings can be large or run the other way. Potencies of inconclusive entries are doubtful fits and often do not repeat.

The molecules below were run against Pyruvate kinase (Leishmania mexicana) (UniProt Q27686) (assay: qHTS Assay for Inhibitors of Leishmania Mexicana Pyruvate Kinase (LmPK)). Settings: purified LmPK, Kinase-Glo ATP luminescence, 1 h; activity change, negative = inhibition: at 57.5 µM (top of the series) unless noted.
Procedure, shortened: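 qHTS format; LmPK 0.1 nM; substrates PEP 0.5 mM and ADP 0.1 mM. One-hour room-temperature incubation, then coupled luciferase luminescence; 0.5 nM enzyme wells mark activation.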
On the % scale 0 is the no-effect control and ±100 the full control effect; potency means the concentration at half of the fitted maximal effect; tags describe the fitted curve by direction and shape.

Sequence of UniProt Q27686 (Q27686 whole entry, looked up): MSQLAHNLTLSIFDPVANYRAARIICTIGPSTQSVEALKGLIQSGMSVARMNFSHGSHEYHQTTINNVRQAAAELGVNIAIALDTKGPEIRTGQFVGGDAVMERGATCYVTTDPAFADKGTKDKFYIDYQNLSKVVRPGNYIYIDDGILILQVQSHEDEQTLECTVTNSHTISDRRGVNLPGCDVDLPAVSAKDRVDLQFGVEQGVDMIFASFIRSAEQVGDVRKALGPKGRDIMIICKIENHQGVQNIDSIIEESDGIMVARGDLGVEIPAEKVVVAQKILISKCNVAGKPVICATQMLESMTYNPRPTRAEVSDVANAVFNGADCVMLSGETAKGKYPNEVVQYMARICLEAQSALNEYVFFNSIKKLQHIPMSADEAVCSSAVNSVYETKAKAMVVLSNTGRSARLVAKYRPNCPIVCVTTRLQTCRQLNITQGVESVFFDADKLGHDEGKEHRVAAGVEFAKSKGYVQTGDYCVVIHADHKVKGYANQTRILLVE

Q: With `COc1cc(-c2cc(=O)c3c(O)cc(O)cc3o2)ccc1O` as the molecule, how does the Potency read?
A: inconclusive: 15.8 µM [falling, partial curve]

Q: Which Potency does the source give for `COc1ccc(C(=O)N=c2nc3ccccn3s2)cc1` here?
A: inconclusive: 3.16 µM [falling, partial curve]

Q: `Oc1ccc(/C=C/c2ccc3ccccc3n2)cc1` was tested. Which Potency did it give?
A: active: 7.08 µM

Q: How did the Potency turn out when `Cc1ccc(-c2cn3nc(C)c(C)nc3n2)cc1` was run?
A: inconclusive: 15.8 µM [falling, partial curve]

Q: Which Potency does the source give for `CCc1ccc(NC(=O)c2ccccc2SC)cc1` here?
A: inconclusive: 15.8 µM [falling, partial curve]

Q: For `CN(c1ccc(C(=O)Nc2ccc3c(c2)OCO3)cc1)S(C)(=O)=O`, which Potency is on record?
A: inconclusive: 14.1 µM [falling, partial curve]

Q: Which “activity change, negative = inhibition” value does the source give for `COc1cc2c(cc1OC)C(c1ccccc1[N+](=O)[O-])N(C(C)=O)CC2` (configuration not stated) here?
A: inactive: 6.43%

Q: How did the “activity change, negative = inhibition” value turn out when `C/C(=N\NC(=O)c1cccnc1)c1c(O)cc(C)oc1=O` was run?
A: inactive: -8%

Q: How did the “activity change, negative = inhibition” value turn out when `COc1cccc(S(=O)(=O)Nc2ccc(C(=O)Nc3ccncc3)cc2)c1` was run?
A: inactive: 0.894%

Q: Which Potency does the source give for `Cc1cc(C(=O)COC(=O)c2ccccc2Br)c(C)n1CC1CCCO1` (configuration not stated) here?
A: inconclusive: 25.1 µM [falling, single point]

Q: For `CCn1cc(C(=O)O)c(=O)c2cnc(N3CCN(C(=S)NC(=O)c4ccc(Cl)cc4)CC3)nc21`, which Potency is on record?
A: active: 14.1 µM

Q: `O=c1oc(-c2ccc([N+](=O)[O-])cc2)nc2ccc(O)cc12` was tested. Which Potency did it give?
A: inconclusive: 14.1 µM [falling, partial curve]

Q: Which Potency does the source give for `C=CCn1c(CSc2nc3ccccc3s2)n[nH]c1=S` here?
A: inconclusive: 12.6 µM [falling, partial curve]

Q: With `Cc1cc(C)n(C2=NS(=O)(=O)c3ccccc32)n1` as the molecule, how does the Potency read?
A: active: 12.6 µM

Q: `COc1cc(C(=O)Nc2ccc(C#N)cc2)c([N+](=O)[O-])cc1OC` was tested. Which “activity change, negative = inhibition” value did it give?
A: inactive: 11.5%

Q: With `O=C(O)C1Nc2c(O)cc(Cl)c([N+](=O)[O-])c2C2C=CCC12` (configuration not stated) as the molecule, how does the Potency read?
A: inconclusive: 20 µM [falling, single point]

Q: For `Cc1cccc2c(N=O)c(O)n(CCc3ccccc3)c12`, which “activity change, negative = inhibition” value is on record?
A: inactive: -4.17%

Q: Which Potency does the source give for `CN(C)/C=N/c1nc(-c2ccc3c(c2)OCO3)cs1` here?
A: inconclusive: 28.2 µM [falling, partial curve]

Q: For `Cc1cc(C2=NNC(=NC3CC3)SC2)c(C)n1-c1ccccc1`, which Potency is on record?
A: inconclusive: 15.8 µM [falling, partial curve]

Q: Which Potency does the source give for `c1ccc(-c2nnc(NC3=NCCC3)o2)cc1` here?
A: active: 20 µM

Q: With `CC(C)(C)c1ccc(C(=O)NCCCN2CCN(CCCNC(=O)c3ccc(C(C)(C)C)cc3)CC2)cc1` as the molecule, how does the “activity change, negative = inhibition” value read?
A: inactive: 3.56%

Q: `Cn1c(=O)c(C(=O)COC(=O)c2cc(C(F)(F)F)nc3c(C(F)(F)F)cccc23)c(N)n(CC2CC2)c1=O` was tested. Which “activity change, negative = inhibition” value did it give?
A: inactive: 4.59%

Q: Which Potency does the source give for `Cc1ccc(C(=O)Nc2nc3ccc(S(C)(=O)=O)cc3s2)o1` here?
A: active: 14.1 µM

Q: With `COc1ccc(O)c(/C=N/N2CCCCC2)c1` as the molecule, how does the Potency read?
A: inconclusive: 17.8 µM [falling, partial curve]

Q: How did the Potency turn out when `CN1C(=CC=C2C=C(I)C(=O)C(I)=C2)C(C)(C)c2ccccc21` was run?
A: inconclusive: 2.24 µM [falling, full curve]

Q: With `Cc1ccc(-c2nnnn2C2C/C(=N\NC(N)=S)C3OCC2O3)cc1` (configuration not stated) as the molecule, how does the “activity change, negative = inhibition” value read?
A: inactive: 1.18%

Q: Which Potency does the source give for `O=Nc1ccc(NOC(=O)c2ccccc2)cc1` here?
A: active: 12.6 µM

Q: For `Nc1ccc2oc(-c3ccc4nc[nH]c4c3)nc2c1`, which Potency is on record?
A: inconclusive: 25.1 µM [falling, partial curve]

Q: How did the Potency turn out when `Cn1ccnc1C(=O)c1cc(=O)c2ccccc2o1` was run?
A: inconclusive: 12.6 µM [falling, partial curve]

Q: With `O=C(CSc1nc2ccccc2[nH]1)c1c[nH]c2ccccc12` as the molecule, how does the “activity change, negative = inhibition” value read?
A: inactive: 2.29%

Q: For `Cc1n[nH]c(=S)n1-c1ccc(Cl)cc1`, which Potency is on record?
A: inconclusive: 31.6 µM [falling, single point]

Q: Which Potency does the source give for `CCC(=O)Nc1ccc(NC(=O)c2cccc(OC)c2)nc1` here?
A: inconclusive: 20 µM [falling, single point]

Q: For `O=C(NC1=NCCS1)Nc1ccccc1`, which Potency is on record?
A: inconclusive: 25.1 µM [falling, single point]

Q: With `COc1ccc(OC)c(-n2c(-c3cnccn3)n[nH]c2=S)c1` as the molecule, how does the Potency read?
A: inconclusive: 35.5 µM [falling, single point]

Q: `O=C(NC1CCCC1)c1sc(=S)n2c1[nH]c(=O)c1ccccc12` was tested. Which Potency did it give?
A: active: 22.4 µM

Q: How did the Potency turn out when `C(=N\Nc1ccc2ccccc2n1)/c1ccc2c(c1)OCO2` was run?
A: inconclusive: 35.5 µM [falling, partial curve]

Q: How did the Potency turn out when `Oc1ccc(-c2n[nH]c(=S)n2-c2ccc3c(c2)OCCO3)c(O)c1` was run?
A: inconclusive: 2.51 µM [falling, full curve]

Q: How did the Potency turn out when `O=CN/C=C/c1cc(O)ccc1O` was run?
A: active: 4.47 µM

Q: How did the Potency turn out when `S=c1[nH]nc(-c2cccs2)n1C1CCCCC1` was run?
A: active: 3.55 µM

Q: Which Potency does the source give for `Cc1ccc(NC(=O)c2ccoc2C)cc1C` here?
A: active: 14.1 µM

Q: `Cc1ccc2nc(SCC(=O)O)nc(C)c2c1` was tested. Which Potency did it give?
A: inconclusive: 22.4 µM [falling, single point]

Q: With `Cc1ccc2oc3nc(C)c(C(=O)O)cc3c(=O)c2c1` as the molecule, how does the Potency read?
A: active: 15.8 µM

Q: How did the Potency turn out when `Cc1ccc(NCc2nc3ccccc3n2C)cc1` was run?
A: inconclusive: 14.1 µM [falling, partial curve]

Q: Which Potency does the source give for `Cc1ccc(-n2c(C)n[nH]c2=S)cc1C` here?
A: inconclusive: 17.8 µM [falling, partial curve]

Q: Which “activity change, negative = inhibition” value does the source give for `Cc1csc(NC(=O)CCS(=O)(=O)c2ccc(Br)cc2)n1` here?
A: inactive: 1.43%

Q: Which Potency does the source give for `COc1cccc(C(=O)O/N=C(\N)c2ccncc2)c1` here?
A: inconclusive: 39.8 µM [falling, single point]

Q: How did the Potency turn out when `CCOC(=O)c1ccc(NC(=O)N2CCc3ccccc32)cc1` was run?
A: inconclusive: 12.6 µM [falling, partial curve]

Q: With `Nc1ccc2nc(-c3cccs3)[nH]c2c1` as the molecule, how does the Potency read?
A: inconclusive: 28.2 µM [falling, partial curve]

Q: `COc1ccc(C(=O)NC(=O)Nc2cc(C)ccn2)cc1` was tested. Which Potency did it give?
A: inconclusive: 14.1 µM [falling, partial curve]

Q: With `COC(=O)c1nn(-c2ccc3c(c2)CCN3C(C)=O)cc1O` as the molecule, how does the Potency read?
A: active: 10 µM

Q: For `CCCc1cc(-c2n[nH]c(=S)n2C(C)c2ccccc2)cs1` (configuration not stated), which Potency is on record?
A: active: 22.4 µM

Q: Which “activity change, negative = inhibition” value does the source give for `CCCNC(=O)CN1C(=O)c2ccccc2Sc2ncccc21` here?
A: inactive: 0.486%
